Data taken from PMC4336329 (PLoS ONE, 2015).
The whole screen tested about 310,000 compounds, of which about 2,200 (0.71%) showed an effect of 50% or more. Effects have a minus sign here. The list shows a part of the results.

molecular target: human ether-à-go-go-related gene (hERG) potassium channel (human, UniProt Q12809); experiment: primary screen, population patch clamp on CHO cells stably expressing hERG
Sequence (Q12809 whole entry, looked up): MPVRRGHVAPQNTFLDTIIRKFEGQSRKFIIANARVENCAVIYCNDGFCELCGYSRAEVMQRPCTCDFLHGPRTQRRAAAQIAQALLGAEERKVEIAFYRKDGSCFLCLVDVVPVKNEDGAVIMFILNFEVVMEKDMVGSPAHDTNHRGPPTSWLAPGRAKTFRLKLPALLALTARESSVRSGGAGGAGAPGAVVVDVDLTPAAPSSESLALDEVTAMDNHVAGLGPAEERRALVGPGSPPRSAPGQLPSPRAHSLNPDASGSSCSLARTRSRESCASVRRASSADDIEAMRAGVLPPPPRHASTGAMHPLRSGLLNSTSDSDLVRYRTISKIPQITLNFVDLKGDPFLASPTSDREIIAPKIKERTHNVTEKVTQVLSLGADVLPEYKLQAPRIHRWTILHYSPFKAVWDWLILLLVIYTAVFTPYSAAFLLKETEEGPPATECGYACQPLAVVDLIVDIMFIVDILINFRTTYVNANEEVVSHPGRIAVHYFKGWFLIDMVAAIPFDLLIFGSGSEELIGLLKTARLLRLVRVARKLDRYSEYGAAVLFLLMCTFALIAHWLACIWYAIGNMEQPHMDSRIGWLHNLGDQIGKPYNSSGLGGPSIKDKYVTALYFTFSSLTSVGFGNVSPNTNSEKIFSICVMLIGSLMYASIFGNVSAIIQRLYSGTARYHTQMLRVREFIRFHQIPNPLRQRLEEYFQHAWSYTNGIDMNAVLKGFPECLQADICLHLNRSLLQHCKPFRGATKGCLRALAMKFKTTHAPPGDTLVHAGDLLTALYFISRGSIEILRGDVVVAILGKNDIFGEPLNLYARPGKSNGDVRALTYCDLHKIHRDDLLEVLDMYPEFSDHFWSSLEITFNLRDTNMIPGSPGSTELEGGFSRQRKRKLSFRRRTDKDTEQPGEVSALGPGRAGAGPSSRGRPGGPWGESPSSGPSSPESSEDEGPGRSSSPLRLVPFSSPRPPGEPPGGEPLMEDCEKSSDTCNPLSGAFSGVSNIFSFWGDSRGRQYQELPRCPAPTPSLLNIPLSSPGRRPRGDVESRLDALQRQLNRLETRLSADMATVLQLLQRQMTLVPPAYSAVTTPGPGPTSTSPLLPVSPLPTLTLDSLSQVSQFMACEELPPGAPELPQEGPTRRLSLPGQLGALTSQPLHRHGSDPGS

| Compound | hERG current change (%, negative = inhibition) at 1uM [%] |
| --- | --- |
| Cn1c(=O)c2nc3ccccc3nc2n(C)c1=O | 11.5 |
| O=C(CC(=O)NC1CCCCC1)N/N=C/c1ccccc1F | 13 |
| COc1ccccc1NC(=O)c1ccc2c(c1)N(CC(=O)NC(C)C)C(=O)C(C)(C)O2 | 15.3 |
| O=C(O)CCc1nnc(SCC(=O)Nc2cccc(C(F)(F)F)c2)[nH]c1=O | 20.7 |
| CCCN1C(=O)CC(Sc2ncccc2C(=O)O)C1=O (stereo not drawn) | 7.75 |
| CCOC(=O)c1c(NC(=S)Nc2ccc(OC)cc2)sc2c1CCC2 | 8.5 |
| O=C(CSc1nc2ccccc2[nH]1)Nc1cc(C(F)(F)F)ccc1N1CCOCC1 | -0.419 |
| Cc1ccc(NC(=O)COc2ccc(S(=O)(=O)N3CCOCC3)cc2)cc1 | 13.6 |
| CCOC(=O)C1(CCCc2ccccc2)CCN(C(=O)c2ccoc2)CC1 | -1.47 |
| COc1cc(/C=N/NC(=O)c2cccs2)ccc1OCc1ccccc1 | 9.14 |
| Cc1nc2nc(SCC(=O)c3cccc([N+](=O)[O-])c3)[nH]c2cc1Br | 9.12 |
| Cc1noc(NS(=O)(=O)c2ccc(NC(=O)CC(C)C)cc2)c1C | 16.9 |
| COc1ccc(CN(Cc2cccnc2)C(=S)NCCc2ccccc2)cc1OC.O=C(O)C(=O)O | -3.6 |
| Cc1cc2ccccc2n1CCNC(=O)c1ccc(S(=O)(=O)N2CCOCC2)cc1 | 14.3 |
| COCC(C)Nc1ncnc2c1cnn2-c1ccc(Cl)cc1 (stereo not drawn) | 10.1 |
| Cc1cccc(C)c1OCCCN1CCCC1 | 8.78 |
| CCc1ccc(-c2nc(SCC(=O)NC3CCS(=O)(=O)C3)n[nH]2)cc1 (stereo not drawn) | 9.14 |
| O=C(CCn1cncn1)N1CCCC(N2CCN(c3cccc(C(F)(F)F)c3)CC2)C1 (stereo not drawn) | -19.4 |
| CC12CCCCC1=[N+]([O-])CN2O (stereo not drawn) | 9.46 |
| Cc1ccc(OCC(=O)N/N=C/c2cn(C)c3ccccc23)cc1 | 6.6 |
| CCCCNC(=O)CNC(=S)N(Cc1ccc(C)cc1)Cc1ccco1 | 10.1 |
| CCc1[nH]nc(C(=O)N2CCCC(C(=O)c3cccc(C(F)(F)F)c3)C2)c1C (stereo not drawn) | 10.3 |
| COc1ccccc1CNC(=O)C(=O)NCC1OCCCN1S(=O)(=O)c1cccs1 (stereo not drawn) | 8.7 |

| Compound | hERG current change (%, negative = inhibition) at 1uM [%] |
| --- | --- |
| CCOC(=O)c1c(C)n(C)c2ccc(OC(C)=O)cc12 | 5.13 |
| CS(=O)Cc1cc(Oc2ccccc2)nc(-c2ccncc2)n1 (stereo not drawn) | 1.15 |
| Cc1cc(Cl)c(OCCCNC2CCCC2)c(Br)c1.O=C(O)C(=O)O | -6.84 |
| Cc1nc(/C(N)=N/OC(=O)c2ccc(Cl)cc2)c(C(F)(F)F)o1 | 9.64 |
| CC1CCCCN1C(=S)NCc1ccco1 (stereo not drawn) | 6.7 |
| CCCCC(=O)Nc1ccc(NC(=O)CCCC)nc1 | -6.83 |
| CCn1c2ccccc2c2cc(/C=N/n3c(-c4cc(C)[nH]n4)n[nH]c3=S)ccc21 | 12.3 |
| COCCCn1c(=O)c2sccc2n(Cc2cc(C(=O)OC)ccc2OC)c1=O | 8.26 |
| CN(CC(=O)Nc1cccc(S(=O)(=O)NC2=NCCCCC2)c1)Cc1ccc(C(C)(C)C)cc1.O=C(O)C(=O)O | 12.9 |
| COc1ccc(N2C(=O)CN=C2Nc2nc(C)cc(C)n2)cc1 | 8.29 |
| NCCCC[C@@H]1NC(=O)[C@H](CCC(=O)O)NC(=O)c2cc([N+](=O)[O-])cc(I)c2SC[C@@H](C(=O)NCC(N)=O)NC1=O | 16.6 |
| Cl.Cn1cnc(CCN)c1 | 0.808 |
| O=C(O)CCCC(=O)NNc1nc(-c2ccccc2)c2cc(Cl)ccc2n1 | 19 |
| COC(=O)CCC(=O)c1ccn(S(=O)(=O)c2ccccc2)c1 | 16.1 |
| O=C(NCCCc1ccccc1)c1cncc(Br)c1 | 6.04 |
| COc1ccc(S(=O)(=O)N(CC(=O)N2CCN(C)CC2)c2ccccc2)cc1OC | 7.51 |
| CCCc1nnc(NC(=O)CCC(=O)NC2CCCCC2)s1 | 23.6 |
| CN(Cc1cnccn1)Cc1nc(Cc2ccccc2F)no1 | 5.37 |
| COc1ccc(-n2c(=O)cc(N3CCOCC3)[nH]c2=O)cc1 | 8.58 |
| Cc1ccc(-n2nc(C)c3c(C)c(CCC(=O)O)c(C)nc32)cc1 | 8.11 |
| CCOc1nc(S(=O)(=O)c2ccc(C)cc2)c(Cl)s1 | 7.74 |
| CCC1CCCCN1CCCNC(=O)CN1C(=O)c2cccnc2Oc2ccc(C)cc21 (stereo not drawn) | 0.845 |
| COc1cc(NS(=O)(=O)c2ccc(NC(=O)CN3C(=O)c4ccccc4C3=O)cc2)ncn1 | 7.35 |

| Compound | hERG current change (%, negative = inhibition) at 1uM [%] |
| --- | --- |
| CS(=O)(=O)N1CCN(c2ccccc2NC(=O)c2ccc(-c3ccc(Br)cc3)o2)CC1 | -2.63 |
| CN(C)S(=O)(=O)c1ccc(C(=O)NCC(=O)N/N=C/c2cccs2)cc1 | 13.5 |
| O=C(CN1C(=O)NC2(CCc3ccccc32)C1=O)Nc1ccccc1C(F)(F)F (stereo not drawn) | 8.32 |
| CN(C)c1ccc(CCc2ccc(N)cc2)cc1 | 16.9 |
| Cc1ccc(OCc2nnc(NC(=O)c3cccnc3)s2)cc1 | -1.05 |
| Br.NC1(N)OC(CN2C(=O)c3ccccc3C2=O)CS1 (stereo not drawn) | 4.86 |
| COc1cccc(C(=O)NCC2(c3ccc(OC)c(OC)c3)CCCC2)c1 | 17 |
| CCn1c(NC(=O)C2CCCCC2)nc2ccccc21 | 15 |
| CCCN(CCC)CCNC(=O)C1(O)c2ccccc2NC(=O)N1c1cccc(OC)c1 (stereo not drawn) | 11.8 |
| COc1ccc(S(=O)(=O)NCC(=O)N(CC2CCCO2)C(C(=O)NC2CCCC2)C(C)C)cc1 (stereo not drawn) | 1.13 |
| CCCCN(C(=O)Cc1cccs1)c1nnc(-c2cccnc2)s1 | 3.44 |
| CCSc1nnc(CCNS(=O)(=O)c2ccc(C(C)=O)cc2)n1C | 11.7 |
| CCOC(=O)Cn1cc(C(=O)c2ccco2)c2ccccc21 | 7.89 |
| CC1CCCC(NC(=O)CN(C)CC(=O)Nc2ccc(F)cc2)C1C (stereo not drawn) | -2.28 |
| CC1CN=C(NCc2ccccc2)S1 (stereo not drawn) | 14.9 |
| O=C(CN1CCCCC1)NN(Cc1ccccc1)c1ccccc1.O=C(O)C(=O)O | -28 |
| Cc1ccc(C)c(NC(=O)CCN2CCC(C)CC2)c1 | 5.36 |
| Cc1nc2sc(C(c3ccco3)N3CCN(c4ccc(F)cc4)CC3)c(O)n2n1 (stereo not drawn) | -6.73 |
| Br.Cc1ccc(C(=O)Cn2c(=N)n(N)c3ccccc32)cc1 | 8.01 |
| O=C(NCC(F)(F)F)N1CCOCC1 | 11.6 |
| Cc1nc2nc[nH]n2c(=O)c1NC(=O)CC12CC3CC(CC(C3)C1)C2 | 9.77 |
| Cc1cccn2c(=O)c(C=O)c(NCc3ccccc3)nc12 | 8.55 |
| CCCCNc1nc(N(C)c2ccccc2)nc(-n2ccnc2)n1 | 2.87 |

| Compound | hERG current change (%, negative = inhibition) at 1uM [%] |
| --- | --- |
| COC(=O)C1=C(CS(=O)(=O)c2ccc(Cl)cc2)NC(=O)NC1c1ccc(O)c(OC)c1 (stereo not drawn) | -0.572 |
| Cc1ccc(O/C=C2\OC(=O)c3ccccc32)cc1 | 13.1 |
| O=C(NCC1COc2ccccc2O1)C1C2C=CC3(CN(Cc4ccccc4Cl)C(=O)C13)O2 (stereo not drawn) | -4.57 |
| COc1ccc(C(=O)COC(=O)C(CCSC)NS(=O)(=O)c2ccc(Cl)cc2)cc1 (stereo not drawn) | 8.48 |
| CCCN(CCC)CC(=O)Nc1cccc2c1OCO2.Cl | 10.6 |
| O=c1c2c(nc3nc(CCc4ccccc4)[nH]n13)CCC2 | -2.14 |
| COCCN1CCN(C(=O)c2cc(COc3ccc(F)cc3F)on2)CC1 | 5.1 |
| CCOc1ccccc1Nc1nc(-c2sc(NC(=O)c3ccccc3)nc2C)cs1 | 16.2 |
| Cc1ncoc1C(=O)N1CCCC(C(=O)Nc2cccc(-c3ccc(F)cc3)c2)C1 (stereo not drawn) | 4.88 |
| Cc1ccc(NC(=O)CCn2cc(C(F)(F)F)ccc2=O)cc1 | 17.1 |
| COc1ccc(OCC(=O)NNC(=O)c2nn(C)c(=O)c3ccccc23)cc1 | 6.51 |
| CC1CCN(S(=O)(=O)c2ccc(NC(=O)CN3C(=O)NC(C)(c4ccccc4)C3=O)cc2)CC1 (stereo not drawn) | -7.82 |
| O=C(c1cc([N+](=O)[O-])ccc1Cl)N1CCN(Cc2ccccc2)CC1 | 10.3 |
| CNc1c([N+](=O)[O-])cnn1-c1ccccc1Cl | -13.4 |
| CCCOc1ccccc1C1NC(=O)NC(C)=C1C(=O)OCCOC(C)C (stereo not drawn) | 3.29 |
| O=C(CSc1ccsc1[N+](=O)[O-])NCc1ccccc1 | 9.97 |
| CCCCn1ccnc1C(=O)c1cccc(S(=O)(=O)N2CC(C)CC(C)C2)c1 (stereo not drawn) | -8.3 |
| Cc1ccc(C)c(N2CCN(C(=O)c3ccc(CSc4nc5ccncc5[nH]4)cc3)CC2)c1 | 1.45 |
| O=C(N/N=C/c1cccc(Oc2ccccc2)c1)c1cccc(O)c1 | 15.3 |
| CC(C)(C)NC(=S)N/N=C/c1cccnc1 | 9.56 |
| Cn1c(=O)c2c(nc(NCC(O)CO)n2CCc2ccccc2)n(C)c1=O (stereo not drawn) | 7.57 |
